From PubChem BioAssay AID504832 (National Center for Advancing Translational Sciences (NCATS), 2011)
Hit rate of the full screen: of about 310,000 compounds, about 18,000 (5.8%) were called active. Inconclusive means that the source gave no clear call. Such entries were picked first, then a sample of the others. Calls follow the shape of the dose curve; as a rule, active = well fitted inhibition curve with a large enough effect; inconclusive = small, poorly fitted or top-dose-only effect, or another doubt; inactive = no such curve, though single readings can be large or run the other way. No potency is given beside an inconclusive call; the fits are too rough.

Assay: Primary qHTS for delayed death inhibitors of the malarial parasite plastid, 48 hour incubation
Conditions: P. falciparum luciferase growth in erythrocytes; series mostly up to 28.7 µM; activity change, negative = inhibition: at the top concentration
Outline: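 First compound was added to culture medium, then infected red cells at 0.1% parasitemia and 2% hematocrit (final). After incubation at 37 C under 5% CO2, luciferase detection reagent was dispensed and light output recorded.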
% is scaled to controls: 0 for no effect and ±100 for the full control effect; potency is read from the fitted curve at half-maximal effect; tags tell the direction and shape of the fitted curve.

SMILES	activity change, negative = inhibition	Potency
Clc1ccccc1CN1CCN(/N=C/C=C/c2ccco2)CC1	inactive: -2.69%	–
C[N+]1(C)C2CC[C@H]1CC(OC(=O)C(CO)c1ccccc1)C2 (stereo not given in full)	inactive: 0.136%	–
CCOc1c(OC(C)=O)ccc(/C=C/c2ccc3cccc(OC(C)=O)c3n2)c1[N+](=O)[O-]	–	active: 6.57 µM
COc1ccc(S(=O)(=O)N2CCC(C(=O)NN3CCCCC3)CC2)cc1OC	–	inconclusive [inhibitor, single point]
CNCCOCC(O)CSc1ccccc1 (stereo not given)	inactive: 13.1%	–
O=C(Nc1ccc(Cl)c([N+](=O)[O-])c1)c1cnccn1	inactive: -5.48%	–
COc1ccc(OCCNC(=O)C(c2ccccc2)c2ccccc2)cc1	–	active: 10.4 µM
Cc1cccc(-n2ncc3c(NNC(=O)c4ccco4)ncnc32)c1	inactive: -11.4%	–
O=C(/C=C/c1cccc(Cl)c1)NNC(=O)c1ccncc1	inactive: 5.49%	–
CCn1c(CNC(=O)c2ccco2)nnc1SCC(=O)Nc1cc(C(F)(F)F)ccc1Cl	–	inconclusive [inhibitor, partial curve]
COc1cccc(NC(=O)[C@H](CC(C)C)NC(=O)[C@@H]2Cc3ccccc3CN2)c1	–	inconclusive [inhibitor, single point]
CCOc1ccc(S(=O)(=O)N2CCN(c3ccccc3OC)CC2)c2cccnc12	–	inconclusive [inhibitor, partial curve, poor fit]
COc1ccccc1C(=O)NC(CCSC)C(=O)NCC(c1cccs1)N1CCOCC1 (stereo not given)	–	inconclusive [inhibitor, partial curve]
N#Cc1ccsc1NC(=O)COC(=O)c1cc(Br)ccc1O	–	inconclusive [inhibitor, partial curve]
COc1cccc(C(=O)NCCN2CCN(c3ccc(Cl)cc3)CC2)c1	–	inconclusive [inhibitor, single point]
COc1ccc(NS(=O)(=O)c2ccc(OCC(=O)N3CCN(C)CC3)cc2)cc1Cl	–	inconclusive [inhibitor, single point]
COc1cc(/C=N/NC(=O)c2ccc3nc[nH]c3c2)cc(OC)c1OC	–	inconclusive [inhibitor, single point]
O=[N+]([O-])c1ccc(NC(=S)NCc2ccc(F)cc2)cc1	–	inconclusive [inhibitor, single point]
O=[N+]([O-])c1cccnc1SCc1c(F)cccc1Cl	–	active: 13.1 µM
COc1ccc(NC(=O)CN(C)CC(=O)c2[nH]c(C)c(C(C)=O)c2C)cc1	–	inconclusive [inhibitor, partial curve, poor fit]
COc1cc(NC(=O)c2ccc(Cl)cc2)c(OC)cc1NC(=O)CN1CCCCC1	inactive: -18.5%	–
Cc1ccc(-c2cc(C(=O)N3CCC(C)CC3)c3ccccc3n2)cc1	inactive: -4.91%	–
COc1ccc(/C=C2\Sc3ccc(C(=O)NCCN4CCCCCC4)cc3N(C)C2=O)cc1	–	active: 3.29 µM

SMILES	activity change, negative = inhibition	Potency
CCN(CC)S(=O)(=O)c1ccc2oc(SCC3CN=C(c4ccc(OC)cc4)S3)nc2c1 (stereo not given)	–	inconclusive [inhibitor, single point]
COc1cccc(NC(=O)c2cccc(S(=O)(=O)N3CCN(Cc4ccccc4)CC3)c2)c1	–	inconclusive [inhibitor, single point]
CCN(CC)C(=O)c1[nH]cnc1C(=O)N[C@@H](CC(C)C)C(=O)OCc1ccccc1	–	inconclusive [inhibitor, single point]
CCOC(=O)C1(CCc2ccccc2)CCN(C(=O)c2cnc(C)cn2)CC1	inactive: -18.5%	–
CCOc1ccc(NC(=O)CC2C(=O)N(c3ccc(OC)cc3)C(=O)N2CCc2cccs2)cc1 (stereo not given)	–	inconclusive [inhibitor, partial curve, poor fit]
COc1cccc(CC(=O)N2CCC(n3nccc3NC(=O)C3CC3)CC2)c1	inactive: -8.31%	–
CCSCc1nnc(SCC(=O)Nc2ccc(F)cc2)n1CC	inactive: 10%	–
Cc1cc(C(=O)Nc2ccc(C)c(S(=O)(=O)N3CCOCC3)c2)c2ccccc2n1	–	inconclusive [inhibitor, single point]
CCC(C)Sc1ccc([C@H]2N[C@@](CC(C)C)(C(=O)OC)[C@H]3C(=O)N(CC)C(=O)[C@@H]23)cc1 (stereo not given in full)	–	active: 9.28 µM
CC(C)(C)c1ccc(C(=O)NCC(=O)NCc2ccccn2)cc1	inactive: 35%	–
CC(C)CC(NC(=O)C1CCCN1C(=O)CNC(=O)OCc1ccccc1)C(=O)O (stereo not given)	inactive: 7.42%	–
O=C(Nc1cccc(S(=O)(=O)N2CCCCCC2)c1)c1ccc2ccccc2n1	–	inconclusive [inhibitor, single point]
Cc1c(C(=O)NCc2cccs2)oc2ccc(S(=O)(=O)N3CCOCC3)cc12	–	inconclusive [inhibitor, partial curve]
Fc1ccccc1C1c2cccn2CCN1C(=S)Nc1ccc(Br)cc1 (stereo not given)	inactive: -14.3%	–
COc1cccc(C(=O)NCC(c2ccc3c(c2)OCO3)N2CCN(c3ccc(F)cc3)CC2)c1 (stereo not given)	–	inconclusive [inhibitor, partial curve]
O=C(CS(=O)(=O)c1cn(CC(=O)N2CCOCC2)c2ccccc12)NCc1ccc(F)cc1	–	inconclusive [inhibitor, partial curve, poor fit]
Cc1ccc(CNC(=O)COc2ccc(C)nc2[N+](=O)[O-])cc1	inactive: 36.2%	–
CCn1cc(/C=N/NC(=O)COc2cccc3cccnc23)c2ccccc21	–	inconclusive [inhibitor, single point]
Cc1c(C(=O)NCc2ccc3c(c2)OCO3)sc2nc(-c3ccc(F)cc3)cn12	–	inconclusive [inhibitor, single point]
Cn1nccc1C(=O)N(CCN1CCCCC1)CC1CCCN(C2CCCC2)C1 (stereo not given)	inactive: -19.1%	–
Cc1ccc2[nH]c(-c3ccccc3)c(CN3CCCC3)c(=O)c2c1	–	inconclusive [inhibitor, partial curve, poor fit]
COc1ccccc1NC(=O)c1ccc(NC(=O)CSc2nnnn2C)cc1	–	inconclusive [inhibitor, single point]
